This note sets out measurements from the supplement of paper PMC8512760.

This is one part of the list. Single values are uncertain, as repeats are few or missing.
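Note: stably firefly luciferase-GFP labeled cells in 96-well plates, viability read as luciferase photon flux after d-luciferin addition, treated wells normalized to vehicle wells, single-dose high-throughput screen.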

The first assay has as its system HCC-1187. Kind of assay: cell viability relative to vehicle (% of vehicle); basal-like triple-negative breast cancer lines; higher = less cytotoxic. The note with it: 10 µM; 72 h.
On to `CCOc1cc(C(CS(C)(=O)=O)N2C(=O)c3cccc(NC(C)=O)c3C2=O)ccc1OC` (stereo not given), for which the cell viability is 75.8.

The compound `Cl.NC1=NCC2c3ccccc3Cc3ccccc3N12` (stereo not given) [Epinastine HCl] registered a cell viability of 89.1.

For `CCCCCCOC(=O)N=C(N)c1ccc(NCc2nc3cc(C(=O)N(CCC(=O)OCC)c4ccccn4)ccc3n2C)cc1.CS(=O)(=O)O` [Dabigatran etexilate mesylate], the cell viability was 114.

`CCCCC(=O)OC1CCC2C3CCc4cc(O)ccc4C3CCC12C` (stereo not given) [Estradiol valerate] had a cell viability of 106.

`O=C(O)CO.[NH2-].[NH2-].[Pt+2]` [Nedaplatin] had a cell viability of 32.2.

Consider `C=CC(=O)Nc1cccc(Nc2nc(Nc3ccc(N4CCN(C(C)=O)CC4)cc3OC)ncc2C(F)(F)F)c1`, for which the cell viability came out at 16.4.

As for `C=C1c2cccc(O)c2C(O)=C2C(=O)C3(O)C(O)=C(C(N)=O)C(=O)C(N(C)C)C3C(O)C12.Cl` (stereo not given) [Methacycline HCl], the cell viability was determined as 100.

As to `CC(=O)OC1CCC2(C)C(=CCC3C2CCC2(C)C(c4cccnc4)=CCC32)C1` (stereo not given) [Abiraterone acetate], the cell viability was determined as 108.

On to `Cc1c(O)cccc1C(=O)NC(CSc1ccccc1)C(O)CN1CC2CCCCC2CC1C(=O)NC(C)(C)C` (stereo not given) [Nelfinavir], for which the cell viability stood at 75.6.

The next assay deals with MDA-468. The description is as above. The following applies: 10 µM; 72 h.
The compound `CC1=NS(=O)(=O)c2cc(Cl)ccc2N1` [Diazoxide] returned a cell viability of 121.

For the compound `CCOC(=O)c1ccc(N)cc1` [Benzocaine], the cell viability turned out to be 112.

In the case of `O=C(O)Cc1cc(I)c(Oc2ccc(O)c(I)c2)c(I)c1` [Tiratricol], the cell viability came to 106.

In the case of `CC(=O)NC(CS)C(=O)O` (stereo not given) [Acetylcysteine], the cell viability is 110.

As to `Cn1c(=O)cc(N2CCCC(N)C2)n(Cc2cc(F)ccc2C#N)c1=O` (stereo not given) [Trelagliptin], the cell viability is 92.2.

The compound `CC12CCC(O)CC1=CCC1C2CCC2(C)C(n3cnc4ccccc43)=CCC12` (stereo not given) showed a cell viability of 133.

On to `CNC(=O)C(NC(=O)C(CC(C)C)C(O)C(=O)NO)C(C)(C)C` (stereo not given) [Marimastat], for which the cell viability came to 65.2.

Consider `CC(C(=O)O)c1cccc(Oc2ccccc2)c1` (stereo not given) [Fenoprofen calcium hydrate], for which the cell viability was found to be 104.

Compound `CS(=O)(=O)CCNCc1ccc(-c2ccc3ncnc(Nc4ccc(OCc5cccc(F)c5)c(Cl)c4)c3c2)o1.Cc1ccc(S(=O)(=O)O)cc1.Cc1ccc(S(=O)(=O)O)cc1` [Lapatinib Ditosylate] displayed a cell viability of 54.9.

In turn, `CCCN1CCCCC1C(=O)Nc1c(C)cccc1C.Cl` (stereo not given) [Ropivacaine HCl] returned a cell viability of 105.

In turn, `C[N+](C)(C)CCO.[Cl-]` [Choline Chloride] returned a cell viability of 91.4.

For `C[N+](C)(C)CC(O)CC(=O)O.[Cl-]` (racemic) [DL-Carnitine HCl], the cell viability worked out at 106.

`C=C(c1ccc(C(=O)O)cc1)c1cc2c(cc1C)C(C)(C)CCC2(C)C` [Bexarotene] came in with a cell viability of 95.1.

Compound `Cl.Cl.NC(=NCCCCCCN=C(N)N=C(N)Nc1ccc(Cl)cc1)N=C(N)Nc1ccc(Cl)cc1` [Chlorhexidine HCl] displayed a cell viability of 58.4.

For the compound `CCC1=CC2CN(C1)Cc1c([nH]c3ccccc13)C(C(=O)OC)(c1cc3c(cc1OC)N(C)C1C(O)(C(=O)OC)C(OC(C)=O)C4(CC)C=CCN5CCC31C54)C2.O=C(O)C(O)C(O)C(=O)O.O=C(O)C(O)C(O)C(=O)O` (stereo not given) [Vinorelbine ditartrate], the cell viability was determined as 93.5.

For `CC(=O)c1c(C)c2cnc(Nc3ccc(N4CCNCC4)cn3)nc2n(C2CCCC2)c1=O.Cl`, the cell viability stood at 103.

`Cl.O=C1Cc2cc(CCN3CCN(c4nsc5ccccc45)CC3)c(Cl)cc2N1` [Ziprasidone HCl] had a cell viability of 96.8.

`O=C(CCCCCCNC(=O)c1cnc(N(c2ccccc2)c2ccccc2)nc1)NO` [Rocilinostat (ACY-1215)] came in with a cell viability of 95.2.

Regarding `Cc1ccccc1N1C(=O)c2cc(S(N)(=O)=O)c(Cl)cc2NC1C` (stereo not given) [Metolazone], the cell viability was determined as 110.

In turn, `COC(=O)C1=C(C)NC(C)=C(C(=O)OCCN(C)Cc2ccccc2)C1c1cccc([N+](=O)[O-])c1.Cl` (stereo not given) [Nicardipine HCl] yielded a cell viability of 104.

`CC1CC2C3CCC4=CC(=O)C=CC4(C)C3(Cl)C(O)CC2(C)C1(OC(=O)c1ccco1)C(=O)CCl` (stereo not given) [Mometasone furoate] returned a cell viability of 170.
